Source: publication PMC4336329 (PLoS ONE, 2015)
About 2,200 (0.71%) of roughly 310,000 compounds showed an effect of 50% or more. The effect is printed as a negative number. Some of the results follow. Where a SMILES comes first, the peptide text is derived from it. [ ]: non-standard residue; d: D form. The star is where a group is joined. ξ: configuration not given here. Cbz = O=C(OCc1ccccc1)*; ξS = NC(CO)C(=O)O

Each compound was assayed against human ether-à-go-go-related gene (hERG) potassium channel (human, UniProt Q12809) (assay: primary screen, population patch clamp on CHO cells stably expressing hERG).
Chain of human ether-à-go-go-related gene (hERG) potassium channel (Q12809 whole entry, looked up): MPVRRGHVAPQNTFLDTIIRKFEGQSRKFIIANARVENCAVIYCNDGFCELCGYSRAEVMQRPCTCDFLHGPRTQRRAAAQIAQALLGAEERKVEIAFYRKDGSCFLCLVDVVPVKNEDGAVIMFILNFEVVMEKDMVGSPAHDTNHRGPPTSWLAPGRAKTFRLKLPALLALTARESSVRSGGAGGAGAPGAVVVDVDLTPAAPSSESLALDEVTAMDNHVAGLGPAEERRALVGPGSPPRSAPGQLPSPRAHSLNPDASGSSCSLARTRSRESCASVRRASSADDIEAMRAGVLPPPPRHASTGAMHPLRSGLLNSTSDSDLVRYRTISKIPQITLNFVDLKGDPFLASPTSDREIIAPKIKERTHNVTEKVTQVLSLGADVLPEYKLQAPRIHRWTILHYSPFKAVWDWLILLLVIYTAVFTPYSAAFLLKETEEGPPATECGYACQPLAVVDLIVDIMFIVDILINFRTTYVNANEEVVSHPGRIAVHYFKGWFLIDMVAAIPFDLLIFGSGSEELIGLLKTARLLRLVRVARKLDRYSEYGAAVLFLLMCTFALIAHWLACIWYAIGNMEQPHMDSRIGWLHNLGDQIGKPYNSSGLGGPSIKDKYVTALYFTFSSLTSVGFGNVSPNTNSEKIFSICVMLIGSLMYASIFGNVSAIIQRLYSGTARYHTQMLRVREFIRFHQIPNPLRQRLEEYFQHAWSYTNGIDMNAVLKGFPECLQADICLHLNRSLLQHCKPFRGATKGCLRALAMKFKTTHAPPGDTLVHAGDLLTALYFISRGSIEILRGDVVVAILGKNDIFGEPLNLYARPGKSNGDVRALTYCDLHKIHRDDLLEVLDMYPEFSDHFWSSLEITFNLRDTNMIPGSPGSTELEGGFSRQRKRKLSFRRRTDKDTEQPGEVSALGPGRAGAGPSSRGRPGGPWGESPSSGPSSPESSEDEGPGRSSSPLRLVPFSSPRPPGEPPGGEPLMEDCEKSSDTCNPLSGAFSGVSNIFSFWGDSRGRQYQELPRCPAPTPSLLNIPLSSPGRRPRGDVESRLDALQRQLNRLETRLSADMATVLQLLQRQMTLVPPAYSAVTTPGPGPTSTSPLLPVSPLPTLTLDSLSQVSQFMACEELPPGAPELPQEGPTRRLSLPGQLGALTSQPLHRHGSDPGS

| SMILES | hERG current change (%, negative = inhibition) at 1uM [%] |
| --- | --- |
| CC1(C)CC2(CCO1)OC(=O)CC2C(=O)Nc1ccccc1Cl (centres unmarked) | 9.95 |
| N=c1c(C(=O)NCc2ccco2)cc2c(=O)n3ccccc3nc2n1Cc1ccc(Cl)cc1 | -55.7 |
| COc1ccc(C)cc1Nc1cc(C)nc2nc(C)nn12 | -0.35 |
| C=CCn1c(COC)nnc1SCC(=O)c1ccc(F)cc1 | 5.03 |
| CCOC(=O)c1ccc(NC(=O)CSc2nnnn2CCCO)cc1 | -0.423 |
| O=C(COc1ccccc1[N+](=O)[O-])N/N=C/C=C/c1ccco1 | 5.63 |
| CC(C)/C=C/CN1CCC(Oc2ccc(C(=O)N3CCCC3)cc2)CC1 | -1.2 |
| COc1ccc(/C=C/c2nc3cc(-c4ccccc4)ccc3o2)cc1O | 9.24 |
| CN1CCN(c2ccc(NC(=O)c3ccc(C#N)cc3F)cc2Cl)CC1 | -10.9 |
| COc1ccc([N+](=O)[O-])cc1/C=N/NC(=O)Cc1ccccc1 | 12.4 |
| COC(=O)c1cccc(NC(=O)C23CC4CC(C2)CC(n2cncn2)(C4)C3)c1 | -5.4 |
| CCOC(=O)CNC(=O)C(CO)NC(=O)OCc1ccccc1 (centres unmarked) (Cbz-[ξS]-Gly-OEt) | 9.46 |
| CCCNC(=O)c1ccc(N2CCC3(CC2)CC(c2cccc(Br)c2)=NO3)c(NC(=O)c2ccc(Cl)c([N+](=O)[O-])c2)c1 | 2.42 |
| CCCCNC(=O)c1cn(-c2ccc(OCC)cc2)c(=O)c2cc(OC)c(OC)cc12 | 10.1 |
| N/C(=N\OC(=O)c1cccc(F)c1)c1cccc([N+](=O)[O-])c1 | 19.1 |
| CCN1C(=O)[C@@H]2[C@@H](c3ccc(-c4ccc(C(C)=O)cc4)cc3)N3CCC[C@@]3(C(=O)OC)[C@@H]2C1=O.O=C(O)C(F)(F)F | -2.75 |
| NC(=O)c1cn(-c2ccccc2)nc1-c1cc2ccccc2oc1=O | -8.14 |
| COc1ccc(/C=N/NC(=O)CN2CCS(=O)(=O)CC2)cc1 | 6.08 |
| O=C(O)c1ccc(N/N=C/c2ccc(-c3ccc(Br)cc3)o2)cc1 | 6.3 |
| Cc1cc(OCC(=O)NCC2CCC(C(=O)O)CC2)c2c3c(c(=O)oc2c1)CCC3 (centres unmarked) | 12.5 |
| O=C(O)c1cccc(NC(=S)NC(=O)C(c2ccccc2)c2ccccc2)c1 | 5.58 |
| CCOC(=O)c1ccc(NC(=O)CC2C(=O)N(c3ccc(F)cc3)C(=O)N2CCCOC)cc1 (centres unmarked) | -2.1 |

| SMILES | hERG current change (%, negative = inhibition) at 1uM [%] |
| --- | --- |
| O=C(NC1CCS(=O)(=O)C1)Oc1ccccc1 (centres unmarked) | 12.9 |
| CCOc1ccc(C(C#N)N2CCOCC2)cc1OC (centres unmarked) | 14.3 |
| CN(CC(=O)NCc1cccs1)S(=O)(=O)c1cccc2nsnc12 | 12.4 |
| O=C(CSc1ncnc2c1cnn2-c1ccc(F)cc1)NC1CCCC1 | 11.4 |
| CCCNC(=O)C(Cc1ccc(Br)cc1)NC(=O)c1ccc(C#N)cc1 (centres unmarked) | 5.8 |
| COc1cccc(/C=N/n2cnc3ccccc32)c1OC | 12.8 |
| CC(C)c1ccc(NC(=O)C2CCCCC2C(=O)O)cc1 (centres unmarked) | 5.18 |
| CCCCCCn1c(COc2ccccc2F)nnc1SCC(=O)N1c2ccccc2NC(=O)C1(C)C | 5.95 |
| CCOC(=O)Cc1csc(NC(=O)c2ccc(F)cc2)n1 | 13.9 |
| COc1ccccc1N1CCN(Cc2cc(OC)c3c(c2)OCO3)CC1 | 10.7 |
| CCOC(=O)C(=CNc1ccc(NC2=NCC(C)S2)cc1)C(=O)OCC (centres unmarked) | 5.36 |
| Cc1cc(NC(=O)CSc2nnc3c(C)cc4cc(C)c(C)cc4n23)no1 | 11.6 |
| Cl.O=C(NN1CCN(Cc2ccccc2Cl)CC1)c1ccc(Br)cc1 | 10.2 |
| CN(CCOc1ccc(Cl)cc1)C(=O)C1CCN(C(=O)c2ccc(Cl)cc2)CC1 | -37 |
| CCC1(C)Cc2c(sc(NC(=O)CCC(=O)O)c2C#N)CO1 (centres unmarked) | 9.25 |
| CC1CCN(C(=O)COc2cccc3c2CCN(Cc2ccccc2)C3=O)CC1 | -2.61 |
| COc1cc(CNCc2c[nH]c3ccccc23)cc(OC)c1 | 10.8 |
| CCOC(=O)c1cc(-c2ccc(N3CCOCC3)cc2)nn1-c1ccccc1C(=O)O | 9.57 |
| COc1ccc(-c2cc(=O)c3c(O)c(OC)c(O)cc3o2)cc1 | 0.229 |
| CCS(=O)(=O)c1ccc2oc(Nc3cc(C)cc(C)c3)nc2c1 | -6.52 |
| Cc1cccn2c(=O)c3cc(C#N)c(=NC(=O)c4ccco4)n(Cc4ccco4)c3nc12 | -30.9 |
| COc1ccc(CN(C)CC(=O)N(C)CC(=O)Nc2ccccc2Br)cc1F | 0.78 |

| SMILES | hERG current change (%, negative = inhibition) at 1uM [%] |
| --- | --- |
| CC(=O)Nc1cccc([N+](=O)[O-])c1 | 13.1 |
| COC(=O)[C@]1(C)CCC[C@@]2(C)C3CC[C@]4(OC(C)=O)C[C@@]3(CCC21)CC4=O (some centres unmarked) | 9.38 |
| COc1cc(/C=C/C(=O)c2ccc(NS(=O)(=O)c3ccc(C)cc3)cc2)ccc1OC(F)F | 13.7 |
| CCN1C(=O)/C(=C/N(C)C)c2ccccc21 | -1.72 |
| O=Cc1ccccc1-c1cn(CN2C(=O)c3ccccc3C2=O)nn1 | 8.75 |
| CCN(CC)C(=O)c1ccc(NC(=O)c2cc(-n3cnnc3)ccc2Cl)cc1 | 13.9 |
| CCOc1cc(C(=O)N/N=C/c2ccsc2)cc(OCC)c1OCC | 7.19 |
| CCC1=NN2C(=N)/C(=C\c3cccn3-c3c(C)cccc3C)C(=O)N=C2S1 | -10.1 |
| Cl.NCCCP(=O)(O)CCc1ccccc1 | 4.94 |
| CCOc1c(Cl)cc(C(=O)Nc2ccccc2-c2ccccc2)cc1Cl | 14.4 |
| CCOC(=O)c1cn2nc(Oc3ccc(C(=O)OC)cc3)ccc2n1 | 10.4 |
| CCOc1ccccc1OCC(=O)Nc1c(C)n(C)n(-c2ccccc2)c1=O | 2.2 |
| Cc1cc(N/N=C/c2ccc(N(C)C)cc2)c2ccccc2n1 | 12.7 |
| COc1cccc(-n2c(-c3cccc(S(=O)(=O)N(C)C)c3)n[nH]c2=S)c1 | 16.8 |
| Cn1c(=O)c2c(nc(Sc3nc4ccccc4n3CC(=O)N3CCCCC3)n2C)n(C)c1=O | 0.859 |
| CC1CCN(c2ccc3c(c2)S(=O)(=O)c2cccc(C(=O)NCc4cccc(F)c4)c2C3=O)CC1 | 13.4 |
| Nc1cc(C(=O)O)ccc1Nc1ccccc1 | -7.46 |
| COc1ccc(N2C(=O)CC(Sc3ncn[nH]3)C2=O)c(OC)c1 (centres unmarked) | 6.05 |
| CCn1ncc(C2=NOC(C(=O)Nc3ccc(C)cc3)C2)c1C (centres unmarked) | 15.6 |
| COc1ccccc1N1C(N)=NC(N)=NC12CCCCC2.Cl | 17.5 |
| N#Cc1cccc(NC(=O)COc2ccc(-n3ccnc3)cc2)c1 | -51 |
| CN1CCCN(C(=O)c2cc(-c3ccc(Cl)c(Cl)c3Cl)nc3ccccc23)CC1.Cl | -18.7 |

| SMILES | hERG current change (%, negative = inhibition) at 1uM [%] |
| --- | --- |
| O=C(O)Cc1csc(-c2cccc(F)c2)n1 | 15 |
| COc1ccc(NC(=O)CN2c3cccc4cccc(c34)S2(=O)=O)c(OC)c1 | 5.94 |
| Cn1ncc2c(Nc3ccc(Cl)c(Cl)c3)ncnc21 | 17.5 |
| COc1ccc(C(=O)NC(C)c2nnc(SCC(=O)NC3CCCCC3)n2C)cc1 (centres unmarked) | 8.96 |
| O=C(NCCCNCCCNC(=O)c1ccc(/C=N/O)nc1)c1ccc(/C=N/O)nc1 | 7.88 |
| COc1ccc(C(=O)NNC(=O)CSc2nnc(C3CC3)n2C)cc1 | 14.5 |
| CC(C)(C)c1nnc(NC(=O)CS(=O)(=O)Cc2ccccc2)s1 | 14.3 |
| COc1ccccc1N1CCN(C(=O)CCN2C(=O)c3cccc4cccc(c34)C2=O)CC1 | 9.15 |
| CCOC(=O)c1c(NC(=O)c2ccc(S(=O)(=O)N3CCOCC3)cc2)sc2c1CC(C)(C)NC2(C)C | 11.9 |
| COc1ccc(NC(=O)CSCC(=O)OCc2cccc(OC)c2OC)cc1 | 11.6 |
| CCCNC(=O)c1ccccc1NC(=O)C1COc2ccccc2O1 (centres unmarked) | 7.41 |
| COc1ccc(/C=C/C(=O)NCC(=O)n2nc(C)cc2C)cc1 | 11.2 |
| Cc1ccccc1SCCNC(=O)CCc1ccccc1 | 12 |
| CCc1ccc(C(=O)NNc2ccc(F)cc2)cc1 | 9.38 |
| COC(=O)c1nn(-c2cccc(C(F)(F)F)c2)c(=O)cc1Sc1ccccn1 | 0.0534 |
| Cc1ccc(C(=O)Nc2cccc([N+](=O)[O-])c2)cc1S(=O)(=O)Nc1cccc(C(=O)O)c1 | 12.8 |
| CCOC(=O)Cc1csc(NC(=O)NC2(C(F)(F)F)Oc3cc(Cl)c(Cl)cc3O2)n1 | 8.86 |
| Cc1cccc(C)c1NC(=O)Nc1ccccc1-n1ccnc1 | 4.23 |
| O=S(=O)(/N=C(/Nc1ccccc1)c1ccccc1)c1cccs1 | 7.25 |
| N#C/C(=N/Nc1ccccc1[N+](=O)[O-])C(N)=S | 15 |
